This passage reports enrichment ratio results from a collection of fitness landscapes (doi:10.1126/science.1257360).

First the molecules themselves.
B1: PhoQ; a variant is named by its letters at X, in order, P23837 (parent)
chain: MKKLLRLFFPLSLRVRFLLATAAVVLVLSLAYGMVALIGYSVSFDKTTFRLLRGESNLFYTLAKWENNKLHVELPENIDKQSPTMTLIYDENGQLLWAQRDVPWLMKMIQPDWLKSNGFHEIEADVNDTSLLLSGDHSIQQQLQEVREDDDDAEMTHSVAVNVYPATSRMPKLTIVVVDTIPVELKSSYMVWSWFIYVLSANLLLVIPLLWVAAWWSLRPIEALAKEVRELEEHNRELLNPATTRELTSLVRNLNRLLKSERERYDKYRTTLTDLTHSLKTPLXXLQXXLRSLRSEKMSVSDAEPVMLEQISRISQQIGYYLHRASMRGGTLLSRELHPVAPLLDNLTSALNKVYQRKGVNISLDISPEISFVGEQNDFVEVMGNVLDNACKYCLEFVEISARQTDEHLYIVVEDDGPGIPLSKREVIFDRGQRVDTLRPGQGVGLAVAREITEQYEGKIVAGESMLGGARMEVIFGRQHSAPKDE

This is one part of the list.

This assay covers variants of B1. The experiment in a line: enrichment ratio after two sorts for PhoP signalling (ratio (wild type AVST 3.29)); higher = more functional. As to conditions: with PhoP (E. coli).
In the case of GTVQ, the enrichment ratio amounted to 0.46.

Take SKNG: the enrichment ratio is no more than 0.25.

Turning to QCFM, the enrichment ratio is no more than 0.25.

In the case of PNSF, the enrichment ratio was no more than 0.25.

Regarding HPAP, the enrichment ratio is no more than 0.25.

As to ITPH, the enrichment ratio is no more than 0.25.

For the variant MECI, the enrichment ratio amounted to 12.8.

For VESI, the enrichment ratio was no more than 0.25.

Consider NAKS, for which the enrichment ratio was no more than 0.25.

Take LPFP: the enrichment ratio was no more than 0.25.

On to AVQK, for which the enrichment ratio was no more than 0.25.

For the variant WEYK, the enrichment ratio is no more than 0.25.

For the variant WHSY, the enrichment ratio is no more than 0.25.

Take TQNP: the enrichment ratio is no more than 0.25.

With QTCL, the enrichment ratio was no more than 0.25.

As for ALMF, the enrichment ratio amounted to 3.38.

Take FERM: the enrichment ratio is no more than 0.25.

For the variant DPQP, the enrichment ratio was no more than 0.25.

With GHTY, the enrichment ratio was no more than 0.25.

Consider FFQQ, for which the enrichment ratio is no more than 0.25.

Regarding KKHF, the enrichment ratio was no more than 0.25.

In the case of RQTV, the enrichment ratio was no more than 0.25.

For ALKL, the enrichment ratio was no more than 0.25.

Take QNSL: the enrichment ratio worked out at 2.32.

Consider DFTH, for which the enrichment ratio is no more than 0.25.

For DKRW, the enrichment ratio was no more than 0.25.

As to EQYT, the enrichment ratio was no more than 0.25.

Regarding VPSS, the enrichment ratio is no more than 0.25.

On to GTTQ, for which the enrichment ratio is no more than 0.25.

Turning to WFVN, the enrichment ratio was no more than 0.25.

WHLH: the enrichment ratio was no more than 0.25.

Regarding KQPW, the enrichment ratio is no more than 0.25.

As for QNTC, the enrichment ratio was no more than 0.25.

With YWVT, the enrichment ratio is no more than 0.25.

For the variant RMNN, the enrichment ratio is no more than 0.25.

For PMCH, the enrichment ratio is no more than 0.25.

With KRNR, the enrichment ratio is no more than 0.25.

Take VHTL: the enrichment ratio is no more than 0.25.

In the case of VIVW, the enrichment ratio is no more than 0.25.

As to LNDN, the enrichment ratio is no more than 0.25.

As for WDGF, the enrichment ratio was no more than 0.25.

With DIRC, the enrichment ratio was no more than 0.25.

Regarding YWRC, the enrichment ratio is no more than 0.25.

On to RFPR, for which the enrichment ratio was no more than 0.25.

With EYCW, the enrichment ratio is no more than 0.25.

Consider FHGK, for which the enrichment ratio was no more than 0.25.

With EVPC, the enrichment ratio was no more than 0.25.

Turning to KVEV, the enrichment ratio was no more than 0.25.

On to MDPV, for which the enrichment ratio is no more than 0.25.

On to AFPS, for which the enrichment ratio was no more than 0.25.

Consider LFRW, for which the enrichment ratio is no more than 0.25.

In the case of AWDP, the enrichment ratio is no more than 0.25.

With LWGA, the enrichment ratio was no more than 0.25.

Turning to GFSH, the enrichment ratio is no more than 0.25.

Take QKGT: the enrichment ratio is no more than 0.25.

In the case of YQHQ, the enrichment ratio is no more than 0.25.

Regarding HWYV, the enrichment ratio was no more than 0.25.

In the case of HLGG, the enrichment ratio is no more than 0.25.

Regarding AKWT, the enrichment ratio is no more than 0.25.

As to QNLY, the enrichment ratio was no more than 0.25.

Turning to RPAP, the enrichment ratio was no more than 0.25.

For the variant VKQK, the enrichment ratio was no more than 0.25.

On to FQYA, for which the enrichment ratio was no more than 0.25.

In the case of NCWP, the enrichment ratio was no more than 0.25.

Take HMII: the enrichment ratio is no more than 0.25.

For HLRF, the enrichment ratio was no more than 0.25.

DTVG: the enrichment ratio was no more than 0.25.

With DDCT, the enrichment ratio is no more than 0.25.

Consider VKND, for which the enrichment ratio was no more than 0.25.

WTRT: the enrichment ratio is no more than 0.25.

As to QEIR, the enrichment ratio was no more than 0.25.

For the variant VNYP, the enrichment ratio is no more than 0.25.

On to QDHI, for which the enrichment ratio was no more than 0.25.

For the variant KRYI, the enrichment ratio is no more than 0.25.

Take GHHK: the enrichment ratio was no more than 0.25.

Take RHVV: the enrichment ratio was no more than 0.25.

For GTAF, the enrichment ratio was no more than 0.25.

As for MCEP, the enrichment ratio is no more than 0.25.

HQRE: the enrichment ratio was no more than 0.25.

With VMYQ, the enrichment ratio is no more than 0.25.

Regarding YGWD, the enrichment ratio was no more than 0.25.

As to TMTE, the enrichment ratio worked out at 3.5.

Take HTRT: the enrichment ratio was no more than 0.25.

With ERGY, the enrichment ratio is no more than 0.25.

Regarding KVRA, the enrichment ratio was no more than 0.25.

On to GEAV, for which the enrichment ratio amounted to 8.19.

Regarding THKT, the enrichment ratio was no more than 0.25.

In the case of MTDS, the enrichment ratio was no more than 0.25.

On to PAWW, for which the enrichment ratio was no more than 0.25.

VIWT: the enrichment ratio was no more than 0.25.

IHAC: the enrichment ratio was no more than 0.25.

Turning to RAPL, the enrichment ratio is no more than 0.25.

Consider TWAI, for which the enrichment ratio is no more than 0.25.

As to IMTD, the enrichment ratio is 2.94.

With WQPQ, the enrichment ratio is no more than 0.25.

For the variant SRVE, the enrichment ratio is no more than 0.25.

For HLSC, the enrichment ratio is no more than 0.25.

In the case of WHYA, the enrichment ratio is no more than 0.25.

For the variant GMSD, the enrichment ratio is no more than 0.25.

In the case of YGSW, the enrichment ratio is no more than 0.25.

As for KVDF, the enrichment ratio was no more than 0.25.

Take SLPC: the enrichment ratio is no more than 0.25.

With SQGT, the enrichment ratio was found to be 2.21.

On to ADYI, for which the enrichment ratio was no more than 0.25.

DYCK: the enrichment ratio is no more than 0.25.

As for PLKH, the enrichment ratio was no more than 0.25.

For WRGI, the enrichment ratio is no more than 0.25.

Take QRGL: the enrichment ratio is no more than 0.25.

Regarding TNLM, the enrichment ratio is 2.74.

Turning to NTTG, the enrichment ratio is no more than 0.25.

As to KPSD, the enrichment ratio is no more than 0.25.

On to TRGQ, for which the enrichment ratio is 0.26.

Consider GKSK, for which the enrichment ratio was no more than 0.25.

On to QITN, for which the enrichment ratio is no more than 0.25.

Consider QSHK, for which the enrichment ratio was no more than 0.25.

For the variant PIIT, the enrichment ratio was no more than 0.25.

Take NILS: the enrichment ratio was 3.43.

Turning to VNRA, the enrichment ratio was no more than 0.25.

In the case of RIRA, the enrichment ratio is no more than 0.25.

For the variant HKTL, the enrichment ratio is no more than 0.25.

With EQPH, the enrichment ratio is no more than 0.25.

Turning to RRAM, the enrichment ratio was no more than 0.25.

YNCD: the enrichment ratio turned out to be 0.422.

Regarding YIPM, the enrichment ratio was no more than 0.25.

On to VVCN, for which the enrichment ratio is no more than 0.25.

Consider HCLK, for which the enrichment ratio is no more than 0.25.

For TVDW, the enrichment ratio was no more than 0.25.

As to QAPK, the enrichment ratio is no more than 0.25.

WMAM: the enrichment ratio was no more than 0.25.

Take HPGW: the enrichment ratio was no more than 0.25.

On to WFDK, for which the enrichment ratio was no more than 0.25.

As for DQHV, the enrichment ratio is no more than 0.25.

Regarding ENQS, the enrichment ratio was no more than 0.25.

As for KCMI, the enrichment ratio is no more than 0.25.

Regarding FDML, the enrichment ratio was no more than 0.25.

Turning to VMLD, the enrichment ratio was no more than 0.25.

On to LAHE, for which the enrichment ratio is no more than 0.25.

As for ISEW, the enrichment ratio was no more than 0.25.

As to TECQ, the enrichment ratio worked out at 12.3.

In the case of GFYG, the enrichment ratio is no more than 0.25.

Take SFDE: the enrichment ratio was no more than 0.25.

Turning to PKCD, the enrichment ratio is no more than 0.25.

For MMSW, the enrichment ratio was no more than 0.25.

AMPA: the enrichment ratio is no more than 0.25.

Consider LISV, for which the enrichment ratio was no more than 0.25.

In the case of IREH, the enrichment ratio was no more than 0.25.

On to NFYV, for which the enrichment ratio is no more than 0.25.

Take GFAI: the enrichment ratio is no more than 0.25.

Consider DTRD, for which the enrichment ratio is no more than 0.25.

Consider AWNV, for which the enrichment ratio was no more than 0.25.

Regarding QKHH, the enrichment ratio was no more than 0.25.

Take GQFI: the enrichment ratio is no more than 0.25.

Regarding WPTV, the enrichment ratio is no more than 0.25.

For the variant FRDH, the enrichment ratio is no more than 0.25.

MLFH: the enrichment ratio is no more than 0.25.

As to TCYA, the enrichment ratio worked out at 1.75.

For YTLY, the enrichment ratio was determined as 1.95.

Regarding FMSH, the enrichment ratio was no more than 0.25.

As for ASIV, the enrichment ratio amounted to 11.4.

IPPG: the enrichment ratio is no more than 0.25.

As to SRSG, the enrichment ratio is no more than 0.25.

Consider MMSQ, for which the enrichment ratio is no more than 0.25.

With RMDH, the enrichment ratio is no more than 0.25.

In the case of PPPT, the enrichment ratio was no more than 0.25.

As to RVAA, the enrichment ratio is no more than 0.25.

With TARG, the enrichment ratio is no more than 0.25.

NEHD: the enrichment ratio is no more than 0.25.

With RDLE, the enrichment ratio is no more than 0.25.

Consider AQWS, for which the enrichment ratio was no more than 0.25.

On to RPVS, for which the enrichment ratio is no more than 0.25.

As to HVDR, the enrichment ratio is no more than 0.25.

For the variant CGFL, the enrichment ratio is no more than 0.25.

Regarding IKYT, the enrichment ratio is no more than 0.25.

For STTH, the enrichment ratio came out at 9.19.

Consider CVLF, for which the enrichment ratio is no more than 0.25.

In the case of WDNM, the enrichment ratio was no more than 0.25.

As for ANGP, the enrichment ratio was no more than 0.25.

Turning to EMSG, the enrichment ratio was no more than 0.25.

KSLE: the enrichment ratio was no more than 0.25.

As to PTRK, the enrichment ratio was no more than 0.25.

Regarding GELD, the enrichment ratio is no more than 0.25.

For HYNM, the enrichment ratio was no more than 0.25.

On to GHLR, for which the enrichment ratio is no more than 0.25.

For NGCN, the enrichment ratio is no more than 0.25.

For LFNF, the enrichment ratio was no more than 0.25.

Regarding HKWV, the enrichment ratio is no more than 0.25.

Consider ALRV, for which the enrichment ratio was no more than 0.25.

For YRAA, the enrichment ratio was no more than 0.25.

For YHPH, the enrichment ratio is no more than 0.25.

Take QREV: the enrichment ratio is no more than 0.25.

Regarding SPCG, the enrichment ratio was 1.67.

Take AKYY: the enrichment ratio is no more than 0.25.

In the case of AQIC, the enrichment ratio amounted to 2.92.

For DTDP, the enrichment ratio was no more than 0.25.

With FGGH, the enrichment ratio was no more than 0.25.
